Three compounds from US6130250A, “Veterinary use of a pleuromutilin derivative” (priority 1996, dated 2000) can be followed below.

One experiment concerns Serpulina hyodysenteriae. Briefly: MIC determination on agar, 10 S. hyodysenteriae strains. It counts as cell-based.
Another experiment has as its system S. hyodysenteriae. Kind of experiment: MIC determination by agar dilution, 10 strains from porcine faeces. The format is cell-based, Serpulina hyodysenteriae. The settings on record: Brachyspira hyodysenteriae. Here is the method:
Minimum inhibitory concentrations (MICs) are determined against 10 strains of S. hyodysenteriae isolated from porcine faeces, by the agar dilution method. NCTC (National Collection of Type Cultures) strains or reference strains are used as controls in all MIC tests. The agar medium for S. hyodysenteriae consists of BAB2 (Unipath CM271) containing 7% whole defibrinated sterile sheep blood. All antimicrobial agents are tested in doubling dilutions. Prepared antibiotic dilutions are added to an appropriate volume of MH agar, previously cooled to 50° C., mixed and 20 ml volumes poured. All S. hyodysenteriae incubations are performed in an anaerobic work station at 37° C. (+/-0.5° C.) (Don Whitley Scientific) which provides a strict anaerobic atmosphere comprising 80% nitrogen, 10% hydrogen and 10% carbon dioxide. All other incubations are performed at 37° C. All strains are incubated in an […] atmosphere at 37° C. for 24 hours. The numbers of the organisms are adjusted to an optical density (OD) equivalent to 1×10^8 colony forming units (cfu) per ml, using MH broth as a blank. The antibiotic containing plates are inoculated in duplicate using a multipoint inoculator (Denley Instruments) which delivers a plate inoculum of approximately 1 μl giving an inoculum of 10^4 -10^5 cfu per spot for all strains (Amon, J. Antimicrob. Chemother. 21 [1988] 701-710; Ericsson et al., Acta Pathol. Microbiol. et Immunol. Scand. 217 [1971] (B) Suppl., 1-90). Control plates are incubated under the same conditions as the test plates. The MICs are read after 24 and 48 hours, the latter being the definitive reading. The MIC is defined as the lowest concentration of antibiotic on which there is no growth, disregarding a single colony or a faint haze caused by the inoculum (National Committee for Clinical Laboratory Standards [1989], Antimicrobial Susceptibility Testing, NCCLC Publications SC3, Villanova, Pa., USA).
In general terms: In agar dilution, organisms are placed on agar that contains the substance at set levels.

Experiment [1] relates to M. hyopneumoniae. Kind of experiment: MIC, liquid medium, field isolates and type strain J of M. hyopneumoniae. It counts as cell-based, Mycoplasma hyopneumoniae. The settings on record: for MIC: Mesomycoplasma hyopneumoniae. The protocol: Ten field isolates from outbreaks of enzootic pneumonia in different herds and the type strain "J" are included in the test. […] The test for minimal inhibitory concentration (MIC) is performed in liquid medium ([…]. et al., Acta Vet. […] The mycoplasmas are inoculated in 10 fold dilutions, and the cultures read visually for growth using tubes seeded with 10^2 to 10^4 colour forming units. […] MIC is determined as the lowest concentration of test compound showing inhibition of growth compared to control ([…]. and Szancer, J., Acta Vet. Scand. 35 [1994] 389-394).

In experiment [2] the test system is M. hyopneumoniae. Briefly: MIC, microtitre broth, ten field isolates and type strain J of M. hyopneumoniae. It counts as cell-based, Mycoplasma hyopneumoniae. The text has this: Tissue samples are obtained from the lungs of pigs from various enzootic pneumonia of pigs (EPP)-affected herds. Samples are shipped on dry ice for culture. M. hyopneumoniae is recovered from freshly sectioned lung tissue by direct culture onto Mycoplasma Experience agar. This technique allows the distinctive colonies of M. hyopneumoniae to be recognised and readily separated, by cloning from other faster growing mycoplasma species such as Mycoplasma hyorhinis, often present in EPP lung samples. Isolates are subcultured and identified by disc growth inhibition using specific rabbit antiserum raised to M. hyopneumoniae NCTC 10110.
Cultures for antibiotic challenge are prepared in Mycoplasma Experience broth, incubated aerobically at 36° C.
A commercially available solid medium (Mycoplasma Experience Ltd.) is used to isolate M. hyopneumoniae from lung tissue. A liquid medium (Mycoplasma Experience Ltd.) containing phenol red and glucose (pH 7.6) is used for the MIC assays.
Stock solutions of test compound are prepared at 1 mg/ml concentration in deionised water, sterilised by filtration through 0.2μ pore size membrane filters (Sartorius Minisart, N) and stored at -20° C. For use in the MIC tests the stock solutions are diluted in liquid medium to double the final concentrations required. MIC tests are carried out according to the method of Tanner & Wu, Avian Diseases 36 (1992) 714-717. Actively growing challenge cultures are prepared either from 1 ml aliquots of broth cultures stored at -70° C. or from cultures stored on agar at -70° C. The challenge cultures are diluted to give a target titre of 10^3 to 10^5 colour changing units/ml. 0.1 ml aliquots of challenge inocula are mixed with 0.1 ml aliquots of antibiotic dilution in microtitre wells. Each microtitre plate contains uninoculated media at pH 6.8 (M. hyopneumoniae) (end point control) and antibiotic-free inoculated challenge controls. All plates are sealed with adhesive film and incubated aerobically at 36° C. MICs are recorded when the colour change in the challenge control wells match the pH of the end point control. The MIC is the lowest concentration showing no colour change.

The test system of another experiment is Mycoplasma gallisepticum. Kind of experiment: MIC, serial microdilution, Mycoplasma gallisepticum reference strains. The format is cell-based. The settings on record: Mycoplasmoides gallisepticum, read-out: MIC. The protocol:
(§1) The antimicrobial effect of vainemulin hydrochloride is determined by means of a standard serial microdilution technique in comparison to tylosin (Tylan soluble) and tiamulin hydrogen fumarate.
(§2) 12.8 mg of the test compound are dissolved in 100 ml of distilled water to obtain a stock solution which is stored at -20° C. until used. Mycoplasma gallisepticum reference strain used are X95, S6 Holland, S6 Bench (England), MS-16 (Japan), MK-7 (Japan) and 1226, and various fresh field isolates.
(§3) The antibiotic-sensitivity of the strains is examined using a modified microbroth dilution procedure (Stipkovits et al., Vet. Microbiol. 15 [1987] 65-70). Testing medium is added (100 μl) to all the wells of microtitration plates, using doubling dilutions of antibiotics. The inoculum (100 μl) contains 10^5 cfu/ml. The plates are sealed with sellotape and incubated at 37° C. over a period of 3 days. The lowest concentration of the antibiotic completely preventing colour change of the media at the third day reading is the minimal inhibitory concentration (MIC). The wells without colour range are checked for viability of mycoplasmas by plating them on agar medium. All Mycoplasma strains are propagated in 10 ml of medium B (Ern.o slashed., H. and Stipkovits, L., Acta Vet. Scand. 14 [1973] 436-449). After incubation at 37° C. until early log phase of growth, 1 ml aliquots of culture are dispensed in tubes as seed cultures and stored at -20° C. The glucose fermenting Mycoplasma strains are tested in modified medium Bg supplemented with 1% glucose (pH 7.8), the arginine hydrolysing strains in medium Ba (Ern.o slashed., H. and Stipkovits, L., supra, 450-463) containing 1% arginine (pH 7.3) and the glucose- and arginine-negative strains in medium B including 1% triphenyltetrazolium chloride.
(§4) The average MIC values for different strain groups and antibiotics taking into consideration dilutions are calculated.
(Broth dilution looks for growth in wells or tubes with falling amounts of substance.)

Experiment [3] concerns mycoplasma isolates of chicken origin. Kind of experiment: MIC, serial microdilution, mycoplasma isolates of chicken origin. The format is cell-based. The protocol: as §1, §2, §3, §4
[4] abbreviates: Mesomycoplasma hyopneumoniae, field strains (n = 10).

The structures appear in SMILES notation. Values after ≈ are worked out from the molar mass of the structure shown. Counter-ions that a name gives are not always drawn. Like-named read-outs stand apart in the source and are kept apart here.

On to `Cc1ncc([N+](=O)[O-])n1C` [dimetridazole], for which, in the experiment on Serpulina hyodysenteriae, the “number of strains with MIC 0.500 μg/ml” value came to 2, the “number of strains with MIC 1 μg/ml” value was determined as 2, the “number of strains with MIC 2 μg/ml” value is recorded as 1 and the “number of strains with MIC 8 μg/ml” value was 1. For the same compound, in the experiment on Serpulina hyodysenteriae, the “number of strains with MIC 16 μg/ml” value is recorded as 1 and the “number of strains with MIC 64 μg/ml” value was found to be 3. Further, the MIC (usually the lowest concentration that inhibits growth of the organism) against S. hyodysenteriae worked out at 30 µg/mL (≈ 213 µM).
Take `CCC[C@@H]1C[C@@H](C(=O)N[C@@H]([C@H]2O[C@H](SC)[C@H](O)[C@@H](O)[C@H]2O)[C@@H](C)O)N(C)C1` [lincomycin hydrochloride]: in the experiment on Serpulina hyodysenteriae, the “number of strains with MIC 64 μg/ml” value came out at 1, the “number of strains with MIC 128 μg/ml” value was 3 and the “number of strains with MIC >128 μg/ml” value is reported as 6. This compound gave a minimal inhibitory concentration (MIC) in the experiment on S. hyodysenteriae of 50 µg/mL.
Consider `C=C[C@]1(C)C[C@@H](OC(=O)CSC(C)(C)CNC(=O)[C@H](N)C(C)C)[C@]2(C)[C@H](C)CC[C@]3(CCC(=O)[C@H]32)[C@@H](C)[C@@H]1O` [valnemulin hydrochloride, 14-O-[1-[(R)-2-amino-3-methylbutyrylamino]-2-methylpropan-2-ylthioacetyl]mutilin], for which the minimum inhibitory concentration (MIC) in the experiment with M. hyopneumoniae [1] (final reading 10-14 days, Table 1 line 1 (1 strain), read-out: MIC final) is 2.5 ng/mL; in the experiment with M. hyopneumoniae [1] (final reading 10-14 days, Table 1 line 2 (1 strain), read-out: MIC final) it was 2.5 ng/mL; in the experiment with M. hyopneumoniae [1] (final reading 10-14 days, Table 1 line 3 (3 strains), read-out: MIC final), 2.5 ng/mL; with M. hyopneumoniae [1] (final reading 10-14 days, Table 1 line 4 (5 strains, comprises type strain), read-out: MIC final), 2.5 ng/mL; in the experiment with M. hyopneumoniae [1] (final reading 10-14 days, Table 1 line 5 (1 strain), read-out: MIC final), 2.5 ng/mL; in the experiment on M. hyopneumoniae [1] (initial reading 2-4 days, Table 1 line 1 (1 strain), read-out: MIC initial) it was 1 ng/mL. The MIC in the experiment on M. hyopneumoniae [1] (initial reading 2-4 days, Table 1 line 2 (1 strain), read-out: MIC initial) was 1 ng/mL; in the experiment on M. hyopneumoniae [1] (initial reading 2-4 days, Table 1 line 3 (3 strains), read-out: MIC initial), 1 ng/mL; in the experiment on M. hyopneumoniae [1] (initial reading 2-4 days, Table 1 line 4 (5 strains, comprises type strain), read-out: MIC initial) it was 2.5 ng/mL; in the experiment on M. hyopneumoniae [1] (initial reading 2-4 days, Table 1 line 5 (1 strain), read-out: MIC initial), 2.5 ng/mL; in the experiment with M. hyopneumoniae [2] (Mesomycoplasma hyopneumoniae, NCTC10110, Type Strain J (NCTC 10110), read-out: MIC), 2.5 ng/mL; in the experiment with M. hyopneumoniae [2] (Mesomycoplasma hyopneumoniae, field strains (n = 10), read-out: MIC range), 0.25 to 1 ng/mL. Besides, the MIC is 0.0312 µg/mL in the experiment on Mycoplasma gallisepticum (strain 1226); 0.0312 µg/mL in the experiment with Mycoplasma gallisepticum (strain Bench); 0.0312 µg/mL in the experiment with Mycoplasma gallisepticum (strain Holland); 0.0078 µg/mL in the experiment with Mycoplasma gallisepticum (strain MK-7); 0.0312 µg/mL in the experiment on Mycoplasma gallisepticum (strain MS-16); 0.0312 µg/mL in experiment [3] (isolate 20224, read-out: MIC). Also, the MIC in experiment [3] (isolate 20312, read-out: MIC) worked out at 0.0312 µg/mL; in experiment [3] (isolate 20321, read-out: MIC), 0.0312 µg/mL; in experiment [3] (isolate 20472, read-out: MIC), 0.0312 µg/mL; in experiment [3] (isolate 20473, read-out: MIC), 0.0312 µg/mL; in experiment [3] (isolate 20474, read-out: MIC) it was 0.0312 µg/mL; in experiment [3] (isolate 20475, read-out: MIC), 0.0312 µg/mL. For the same compound, in experiment [3] (read-out: MIC range (sensitivity), avian field isolates), the MIC fell in the range of 0.03 to 0.06 µg/mL. Besides, the “susceptibility of M. hyopneumoniae strains” value with M. hyopneumoniae [1] (all strains tested) was “highly susceptible”. Also, the “MIC times less than those for tiamulin” value against M. hyopneumoniae [1] (initial and final readings) is 10-40 times. In the experiment with M. hyopneumoniae [2] (setting [4]), the MIC50 (in general, an inhibitory concentration at the 50% level, which refers to growth in some studies and to a panel of isolates in others) came out at 0.5 ng/mL. In addition, in the experiment on M. hyopneumoniae [2] (setting [4]), the MIC90 (in general, an inhibitory concentration at the 90% level, which refers to growth in some studies and to a panel of isolates in others) turned out to be 1 ng/mL. Further, the “susceptibility of field isolates” value with M. hyopneumoniae [2] (field isolates) is given as “highly susceptible”. Further, the “MIC compared with enrofloxacin” value against M. hyopneumoniae [2] (individual strains) is “at least five times lower”.
